# Experimental data: the supplement of paper PMC9663587
# Columns and labels:
# MFH-2-90 [1] = compound: T1, C=CC(=O)Nc1ccc(C(=O)N2CCC[C@@H](Nc3ncc(SCc4ncc(C(C)(C)C)o4)s3)C2)cc1 [MFH-2-90]
# MFH-2-90 [2] = compound: T2, C=CC(=O)Nc1ccc(C(=O)N2CCC[C@@H](Nc3ncc(SCc4ncc(C(C)(C)C)o4)s3)C2)cc1 [MFH-2-90] (max 0.1 µM); assay: GRmax, 72 h; higher = less effect;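 also: breast cell lines in 384-well plates, nine doses across a 10^4 range, Dye Drop imaging of viable cells vs DMSO and time-zero plates, GR 0 means no net growth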
# MFH-2-90 [3] = compound: T2, MFH-2-90; assay: area over the GR curve, 72 h; higher = more effect;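 also: Dye Drop or Deep Dye Drop imaging of viable cells in 384-well plates (Hoechst nuclei, LIVE/DEAD dye), nine half-log doses, GR normalized to DMSO controls and time-zero plates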
# MFH-2-90 [4] = compound: T1, MFH-2-90; assay: increase in dead-cell fraction, 72 h; higher = more death;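 also: breast cancer cell lines in 384-well plates, stained with Hoechst plus LIVE/DEAD far red dye and imaged, cells above an LDR intensity threshold counted dead, Hoechst-negative corpses included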
# MFH-2-90 [5] = compound: T1, MFH-2-90; assay: GR value, 72 h; higher = faster growth (1 = untreated, <0 = killing);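 also: breast cancer and non-malignant breast epithelial lines, nine half-log doses, viable cells counted by Hoechst and LIVE/DEAD dye imaging versus time-zero plates and DMSO controls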
# 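For GR50, 72 h in this document: breast cancer and non-malignant breast epithelial cell lines, Deep Dye Drop or Dye Drop imaging, nine half-log doses, GR normalized to time-zero plates and DMSO-only controls.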
Cell Line,"GR50, 72 h (MFH-2-90 [1]) [µM]","GRmax, 72 h (MFH-2-90 [2]) [GR]",area over the GR curve (MFH-2-90 [3]) [GR],also measured
CAMA1,0.000602,-0.346,0.75,–
HCC202,0.0307,0.0812,0.209,–
UACC893,0.0538,-0.34,0.0611,–
MDAMB231,–,-0.333,1.29,–
BT474,0.0388,-0.719,0.167,–
SUM1315,0.000486,-0.838,0.815,–
PDX1206,0.0373,-0.342,0.0637,–
HS578T,–,-0.273,1.21,–
MCF12A,0.00108,-0.147,0.219,–
MDAMB468,0.000606,-0.225,0.689,–
MDAMB361,0.000731,-0.526,0.906,–
SUM159,0.000497,-0.0591,0.623,–
MCF7,–,-0.312,1.35,–
MDAMB415,0.0588,-0.309,0.111,–
MGH312,–,-0.933,1.91,–
MDAMB436,0.000572,-0.0612,0.573,–
184A1,0.0107,-0.321,0.323,–
MDAMB453,0.000457,-0.225,0.742,–
HCC1419,0.000773,-0.348,0.697,–
MCF10A,–,-0.508,1.55,–
MCF10A (GM),0.000537,-0.259,0.7,–
SUM44PE,0.00246,-0.379,0.411,–
ZR7530,0.0398,-0.43,0.136,–
HCC70,–,-0.934,1.91,–
PDXHCI002,0.0427,-0.247,0.0539,–
HTERT_HME1,0.000505,-0.206,0.691,–
HCC1806,–,-0.492,1.49,–
UACC812,0.0511,-0.835,0.0206,–

Cell Line,"GR50, 72 h (MFH-2-90 [1]) [µM]","GRmax, 72 h (MFH-2-90 [2]) [GR]",area over the GR curve (MFH-2-90 [3]) [GR],also measured
SUM229PE,0.0223,-0.111,0.166,–
HCC1937,0.000485,-0.208,0.705,–
PDX1328,0.0406,-0.0127,0.152,–
SUM52PE,0.0265,-0.149,0.144,–
BT20,< 1e-05,-0.618,1.54,–
CAL851,0.000529,-0.176,0.657,–
ZR751,0.00169,-0.311,0.63,–
EFM19,0.00107,-0.292,0.685,–
PDX1258,0.0239,-0.584,0.158,–
MDAMB175VII,0.0269,-0.317,0.201,–
HCC1569,0.0372,-0.118,0.0151,–
AU565,0.000497,-0.532,0.865,increase in dead-cell fraction (MFH-2-90 [4]; 10 pM): -0.0031; increase in dead-cell fraction (MFH-2-90 [4]; 31.6 pM): 0.006; increase in dead-cell fraction (MFH-2-90 [4]; 0.0001 µM): -0.0085; increase in dead-cell fraction (MFH-2-90 [4]; 0.0003162 µM): -0.0034; increase in dead-cell fraction (MFH-2-90 [4]; 0.001 µM): 0.448; increase in dead-cell fraction (MFH-2-90 [4]; 0.003162 µM): 0.404; increase in dead-cell fraction (MFH-2-90 [4]; 0.01 µM): 0.404; increase in dead-cell fraction (MFH-2-90 [4]; 0.03162 µM): 0.431; increase in dead-cell fraction (MFH-2-90 [4]; 0.1 µM): 0.407; GR value (MFH-2-90 [5]; 10 pM): 0.94 GR; GR value (MFH-2-90 [5]; 31.6 pM): 0.852 GR; GR value (MFH-2-90 [5]; 0.0001 µM): 0.995 GR; GR value (MFH-2-90 [5]; 0.0003162 µM): 0.969 GR; GR value (MFH-2-90 [5]; 0.001 µM): -0.416 GR; GR value (MFH-2-90 [5]; 0.003162 µM): -0.433 GR; GR value (MFH-2-90 [5]; 0.01 µM): -0.469 GR; GR value (MFH-2-90 [5]; 0.03162 µM): -0.544 GR; GR value (MFH-2-90 [5]; 0.1 µM): -0.495 GR
CAL120,0.000482,-0.0598,0.633,–
T47D,–,-0.18,1.18,–
HCC1187,–,-0.865,-0.284,–
HCC1395,0.000579,-0.535,0.869,–
BT549,0.000696,-0.334,1.37,–
SUM185PE,0.0255,0.222,0.0973,–
MDAMB330,> 0.1,0.743,0.0453,–
SKBR3,0.00047,-0.632,0.796,–
SUM190PT,0.00411,-0.492,0.439,–
SUM149,0.00046,-0.473,0.848,–
EVSAT,> 0.1,0.991,-0.0068,–
HCC38,0.000464,-0.373,0.792,–
HCC1954,0.000255,-0.454,1.42,–
CAL51,0.00259,-0.146,0.442,–
HCC1143,0.000503,-0.301,0.721,–
